B1: OR4K15 (parent)
chain: GUUAACGGUCAUAGGCCAUGGAAACUAGGAGCACCAUUUCGCUGCCAGUGAAGAAAUGAACAAAGAAAAUCUGGGCCAGGCAGGCAUCAAAAGAAAUAGUCUUGCGCUCAACCAGAAAGUCUGUAAUCAUUUUAAGGGUA

The source gives no read counts; variants with many changes may rest on few reads.

In the series the parent is B1. The experiment in a line: self-cleavage, relative activity (ratio to wild type); higher = more cleavage; in vitro, sequencing; the parent is a self-cleaving ribozyme.
On to GUUAACGGUCGUAGGCCAUGGAAACUAGGAGCACCAUUUCGCUGCCAGUGAAGAAAUGAACAAAGAAAAUCUGGGCCUGGCAGGCAUCAAAAGAAAUAGUCUUGCGCUCAACCAGAAAGUCUGUAAUCAUUUAAAGGGUA, for which the self-cleavage was 0.2.
As for GUUAACGGUCGUAGGCCAUGGAAACUAGGAGCACCAUUUCGCUGCCAGUGAAGAAAUGAACAAAGGAAAUCUGGGUCAGGCAGGCAUCAAAAGAAAUAGUCUUGCGCUCAACCAGAAAGUCUGUCAUCAUUUUAAGGGUA, the figure is 0.36; as for GUUAACGGUCGUAGGCCAUGGAAACUAGGAGCACCAUUUCGCUGCCAGUGAAGAAAUGAACAAAGAGAAUCUGGGCCUGGCAGGCAUCAAAAGAAAUAGUCUUGCGCUCAACCAGAAAGUCUGUAAUCAUUCUAAGAGUA, 0.41.
The value for GUUAACGGUCGUAGGCCAUGGAAACUAGGAGCACCAUUUCGCUGCCAGUGAAGAAAUGAACAAAGAAAAUCUGGGCCAGGCUUGCAUCAAAAGAAAUAGUCUUGCGCUCAACCAGAAAGUCUGUAAUCAUUUUAAGGGUA was 0.35; that for GUUAACGGUCGUAGGCCAUGGAAACUAGGAGUACCAUUUCGCUGCCAGUGAAGAAAUGAACAAAGAAAAUCUGGGCCAGGCAGGCAUCAAAAGAAAUAGUCUUGCGCACACCCAGAAAGUCUGUAAUCAUUUUAAGGGUA was 0.02.
As for GUUAACGGUCGUAGGCCAUGGAAACUAGGAGCACCAUUUCGCUGCCAGUGAAGAAAUGAACAAAGUAAAUCUGGGCCAGGCAGGCAUCAAAAGAAAUAGUCUUGCGCUCAACCAGAAAGUCUGUAAUCGUUUUAAGGGUA, the figure is 1.26.
Regarding GUUAACGGUCGUAGGCCAUGGAAACUAGGAGCACCAUUUCGCUGCCAGUGAAGAAAUGAACAAAGAAAAUCUGGGCCAGGCAGGCAUCUAAAGAAAUAGUCUUGCGCUCAACCAGAAAGUCUGUAGUCAUUUUAAGGGUA, the self-cleavage is 1.85.
The value for GUUAACGGUCGUAGGCCAUGGAAACUAGCAGCACCUUUUCGCUGCCAGUGAAGAAAUGAACAAAGAAGAUCUGGGCCUGGCAGGCAUCGAAAGAAAUAGUCUUGCGCCCAACCAGAAAGCCUGUAAUCAUUUUAGGGGUA was 0; that for GUUAACGGUCGUAGGCCAUGGAAACUAGGAGCACCAUUUCGCUGCCAGUGAAGAAAUGAACAAAGAAAAUCUGGGCCAGGCAGGCAUCGAAAGAAAUAGUCUAGCGCUCAACCAGAAAGUCUGUAAACAUUUUAAGGGUU was 0.74; that for GUUAACGGUCGUAGGCCAUGGAAACUAGGAGCACCAUUUCGCUGCCAGUGAAGAAAUGAACAAAGAAAAUCUGGGCCUGGCAGGCACCAAAAGAAAUAGUCUUGCGCUCAACCAGAAAGUCUGUAAUCCCUUUAAGGGUA was 0.06.
As for GUUAACGGUCGUAGGCCAUGGAAACUAGGAGCACCAUUUCGCUGCCAGUGAAGAAAUGAACAAAGAGAAUCUGGGCCAGGCAGGCAUCAAAAGAAAUAGUCUUGCGCUCAACCAGGAAGUCUGUAAUCAUUUUAAGGGUA, the figure is 0.42; as for GUUAACGGUCGUAGGCCAUGGAAACUAGGAGCACCAUUUCGCUGCCAGUGAAGAAAUGAACAAAGAAAAUCUGGGCCAGGCAGGCAUCAAAAGAAAUAGUCUUGCGCUCAACCAGAACGUCUGCAAUCAUUUUAAGGGUA, 0.06; as for GUUAACGGUCGUAGGCCAUGGAAACUAGGAACACCAUUUCGCUGCCAGUGAAGAAAUGAACAAAGAAAAUCUGGGCCAGGCAGGCAUCAAAAGAAAUAGUCUUGCGCUCAACCAGUAAGUCUGUAAUCAUUUUAAGGGUA, 0.43.
Turning to GUUAACGGUCGUAGGCCAUGGAAACUAGGAGCACCAUUUCGCUGCCAGUGAAGAAAUGAACAAAGAGAAUCUGGGCCAGGCAGGCAUCAAAGGAAAUAGUCUUGCGCUCAACCAGAAGGUCUGUAAUCAGUUUAAGGGUA, the self-cleavage was 0.31.
As for GUUAACGGUCGUAGGCCAUGGAAACUAGGAGCACCAUUUCGCUGCCAGUGAAGAAAUGAACAAAGGAGAUCUGGGCCAGGCAGGCAUCAAAAGAAAUAGUCUUGCGCUCAACCAGAAAGUCUGUGAUCAUUUUAAGGGUA, the figure is 0.57; as for GUUAACGGUCGUAGGCCAUGGAAACUAGGAGCACCAUUUCGCUGCCAGUGAAGAAAUGAACAAAGAAAAUCUGGGCCAGGCAGGCGUCAAAAGAAAUUGUCUUGCGCUCAACCAGAAAGUCUGUAAUCAUUUUAAGGGUA, 0.47.
The value for GUUAACGGUCGUAGGCCAUGGAAACUAGGAGCACCAUUUCGCUGCCAGUGAAGAAAUGAACAAAGAAAAUCUGGGCCAGGCAGGCGUCAAAAGAAAUAGUCUUGCGCUCAGCCAGAAAGUCUGUAAUCAUUUUAAGGGUA was 0.04.
Take GUUAACGGUCGUAGGCCAUGGAAACUAGGAGCACCAUUUCGCUGCCAGUGAAGAAAUGAACAAAGAAGAUCUGGGCCAGGCAGGCAUCAAAAGAAAUAGUCUUGCGCUCAACCAGAAAGUCUGUAAUCAUCUUAAGGGUA: the self-cleavage is 0.52.
As for GUUAACGGUCGUAGGCCAUGGAAACUAGGAGCACCAUUUCGCUGCCAGUGAAGAAAUGAACAAAGAAAAUCUGGGCCGGGCAGGCAUCAAGAGAAAUAGUCUUGCGCUCAACCAGAAAGUCUGUAAUCAUUUUAAGGGUA, the figure is 0.13.
The value for GUUAACGGUCGUAGACCAUGGAAACUAGGAGCACCAUUUCGCUGCCAUUGAAGAAAUGAACAAAGAAAAUCUGGGCCAGGCAGGCAUCAAAAGAAAUAGUCUUGCGCUCAACCAGAAAGUCUGUAAUCAUUUUAAGGGUA was 0.81.
The value for GUUAACGGUCGUAGGCCAUGGAAACUAGGAGCACCAUUUCGCUGCCAGUGAAGAAAUGAACAAAGAGAAUCUGGGCCGGGCAGGCAUCAAAAGAAAUAGUCUUGCGCUCAACCAGAAAGUCUGUAAUCAUUUUAAGGGUA was 0.23; that for GUUAACGGUCGUAGGCCAUGGAAACUAGGAGCACCAUUUCGCUGCCAGUGAAGAAAUGAACAAAGAAAAUCUGGGCCAGGCAGGCAUCAAAAGAGAUGGUCUUGCGCUCAACCAGAAAGUCUGUAAUCACUUUAAGGGUA was 0.68; that for GUUAACGGUCGUAGGCCAUGGAAACUAGGAGCACCAUUUCGCUGCCAGUGAAGAAAUGAACAAAGAAAAUCUGGGCCAGGCAGGCAUCAAGAGAAAUAGUCUUGCGCUCAUCCAGAAAGUCUGUAAUCAUUUUAAGGGUA was 0.07.
Regarding GUUAACGGUCGUAGGCCAUGGAAACUAGGAGCACCAUUUCGCUGCCAGUGAAGAAAUGAACAAAGAAAAUCUGGGCCAGGCAGGCAUCAAAAGAAAUAGUCUUGCGCUCGACCAGAGAGUCUGUAAUCAUUUUAAGGGUA, the self-cleavage came to 0.18.
As for GUUAACGGUCGUAGGCCAUGGAAACUAGGAGCACCAUUUCGCUGCCAGUGAAGAAAUGAACAAAGAAAAUCUGGGCCGGGCAGGCAUCAAAAGAAAUAGUCUUGCGCCCAACCAGAAAGUCUGUAAUCAUUUUAAGGGUA, the self-cleavage was found to be 0.04.
As for GUUAACGGUCGUAGGCCAUGGAAACUAGGAGCACCAUUUCGCUGCCAGUGAAGAAAUGAACAAAGAGAAUCUGGGCCAGGCAGGCAUCAAGAGAAAUAGUCUUGCGCUCAACCAGGAAGUCUGUAAUCAUUUUAAGGGUA, the figure is 0.3.
The value for GUUAACGGUCGUAGGCCAUGGAAACUAGGAGCACCAUUUCGCUGCCAGUGAAGAAAUGAACAAAGAAAAUCUGGGCCAGGCAGGCAUCAAAAGAAAUAGUCUUGCGCUCGACCCGAAAGUCUGUAAUCAUUUUAAGGGUA was 0.04.
The value for GUUAACGGUCGUAGGCCAUGGAAACUAGGAGCACCAUUUCGCUGCCAGUGAAGAAAUGAACAAAGAAUAUCUGGGCCAGGCAGGCAUAAAAAGAAAUAGUCUUGCGCUCAACCAGAAAGUCUGUAAUCACUUUAAGGGUA was 0.96; that for GUUAACGGUCGUAGGCCAUGGAAACUAGGAGCACCAUUUCGCUGCCAGUGAAGAAAUGAACAAAGAAGAUCUGGGCCAGGCAGGCAUCAAAAGAAAUAGUCUUGCGCUCAACCAGAAAGUCUGUAAUCAUUUUAAGGGAA was 0.84.
With GUUAACGGUCGUAGGCCAUGGAAACUAGGAGCACCAUUUCGCUGCCAGUGAAGAAAUGAACAAAGAAAGUCUGGGCCAGGCAGGCAUCAAAAGAAAUAGUCUUGCGCUCAGCCAGAAAGUCUGCAAUCAUUUUAAGGGUA, the self-cleavage turned out to be 0.01.
As for GUUAACGGUCGUAGGCCAUGGAAACUAGGAGCACCAUUUCGCUGCCAGUGAAGAAAUGAACAAAGAAAAUCUGGGCCAGGCAGGCAUCAAAAGAAAUGGCCUUGCGCUCAACCAGAAAGUCUGUAAUCAUUUUAAGGGUA, the figure is 1.18; as for GUUAACGGUCGUAGGGCAUGGAAACUAGGAGCACCAUUCCGCUGACAGUGAAGAAAUGAACAAAGGAAAUCUGGGCCAGGCAGGCAUCAAAAGAAAUAGUCUUGCGCUCAUCCAGAAUGUCUGUAAUCAUUUUAAGGGUA, 0.02; as for GUUAACGGUCGUAGGCCAUGGAAACUAGGAGCACCAUUUCGCUGCCAGUGAAGAAAUGAACAAAGAAAAUCUGGGCCAGGCAGGCAUCAAAAGAAAUAGUCUUGUUCUUAACCAGAAAGUCUGUAAUCAUUUUAAGGGCA, 0.02.
For the variant GUUAACGGUCGUAGGCCAUGGAAACUAGGAGCACCAUUUCGCUGCCAGUGAAGAAAUGAACAAAGAAAAUCUGGGCCGGGCAGGCGUCAAAAGAAAUAGUCUUGCGCUCAACCAGAAAGUCUGUAAUCAUUUUAAGGGUA, the self-cleavage was found to be 0.2.
As for GUUAACGGUCGUAGGCCAUGGAAACUAGGAGCACCAUUUCGCUGCCAGUGAAGAAAUGAACAAAGAAAAUCUGGGCCGGGCAGGCAUCAAAAGAAAUAGUCUUGCGCUCAUCCAGAUAGUCUGUAAUCAUUUUAAGGGUA, the figure is 0.01; as for GUUAACGGUCGUAGGCCAUGGAAACUAGGAGCACCAUUUCGCUGCCAGUGAAGAAAUGAACAAAGAUAAUCUGGGCCAGGCAGGCAUCAAAAGAAAUAGUCUUGCGCUCAACCAGAAAGCCUGUAAUCAUUUUAAGGGUA, 1.33.
The value for GUUAACGGUCGUAGGCCAUGGAAACUAGGAGCACCAUUUCGCUGCCAGUGAAGAAAUGAACAAAGAAAAUCUGGGCCAGGCCGGCAUCAAAAGAAAUAGUCUUGCGCUCAACCAGAAAGUCUGUAAACAUUUUAAGGGUA was 0.4; that for GUUAACGGUCGUAGGCCAUGGAAACUAGGAGCACCAUUUCGCUGCCAGUGAAGAAAUGAACAAAGAGAAUCUGGGCCAGGCAGGCAUCAAAGGAAAUAGUCUUGCGCUCAGCCAGAAAGUCUGUAAUCAUUUUAAGGGUA was 0.07; that for GUUAACGGUCGUAGGCCAUGGAAACUAGGAGCACCAUUUCGCUGCCAGUGAAGAAAUGAACAAAGAAGAUCUGGGCCAGGCAGGCAUCAAAAGUAAUAGUCUGGCGCUCAACCAGAAAGUCUGUAAUCAUUUUAAGGGUA was 0.04.
As for GUUAACGGUCGUAGGCCAUGGAAACUAGGAGCACCAUUUCGCUGCCAGUGAAGAAAUGAACAAAGAAAAUCUGGGCCCGGCAGGCAUCAGAAGAAAUAGUCUUGCGCUCAACCAGAAAGUCUGUAAUCAUUUUAAGGGUA, the figure is 0.25; as for GUUAACGGUCGUAGGCCAUGGAAACUAGGAGCACCAUUUCGCUGCCAGUGAAGAAAUGAACAAAGGAAAUCUGGGCCAGGCAGGCAUCAAAAGAAAUAGUCUUGCGCUCAACCAGAAAGUCUGUAAUCAUUUUAAGGGCA, 1.78.

The values are drawn from the RNAGym collection of RNA variant scans (doi:10.7554/elife.90254).
